The values that follow come from the RNAGym collection of RNA variant scans (doi:10.7554/elife.90254).

Read counts are not given, so values of variants with three or more changes are uncertain.

B1: LINE1-full (parent)
chain: UACGUAGGUGGUUUUCCCCUGAUAGUGCUAAGGGGGCCUGGAAGUUUGGACUGGGCAGAGCUCAACACAGCGUGGCAAAGUGGCUGUGGCUAGACUGCCUCUCUGGAUUCCUCGUCACUCAGCAGGGCAUCUCUGAGAGAAAUGCC

This data set covers variants of B1. The data set can be described thus: self-cleavage, relative activity (ratio to wild type); higher = more cleavage; in vitro, sequencing; the parent is a self-cleaving ribozyme.
In the case of UACGUAGGUGGUUUUCCCCUGAUAGUGCUAAGGGGGCCUAGAAGUUUGGACUGGGCAGAGCUCAACACAGCGUGGCAAGGUGGCUGUGGCUAGACUGCCUCUCUGGUUUCCACGUCACUCAGCAGGGCAUCUCUGAGAGAAAUGCC [G40A A79G A107U U112A], the self-cleavage is 1.12. On to UACGUAGGUGGUUUUCCCCUGAUAGUGCUAAGGGGGCCUAGAAGUACGGGCUGGGCAGAGCUCAACACAGCGUGGCAAAGUGGCUGUGGCUAGACUGCCUCUCUGGAUUCCUCGUCACUCAGCAGGGCAUCUCUGAGAGAAAUGCC [G40A U46A U47C A50G], for which the self-cleavage amounted to 0.92. Take UACGUAGGUGGUUUUCCCCUGAUAGUGCUAAGGGGGCCCGGAAGUUUGGACUGGGCAGAGCUCAACACAGCGUGGCAAAGUGGCUGUGGCUAGACUGCCUCUCUGGAAUCCUCGUCACUCAGCAGGGCACCUCUGAGAGAAAUGCC [U39C U108A U130C]: the self-cleavage stood at 0.71. As to UACGUAGGUGGUUUUCCCCUGAUAGUGCUAAGGGGGCCGGGAAGUUUGGACUGGGCAGAGCCCAACACAGCGUGGCAAAGUGGCUGUGGCUAGGCUGCCUCUCUGGAUUCCUCGUCACUCAGCAGGGCAUCUCUGAGAGAAAUGCC [U39G U62C A94G], the self-cleavage came out at 0.15. The same measure for UACGUAGGUGGUUUUCCCCUGAUAGUGCUAAGGGGGCCUAGAAGUUUGGACUUGGCAGAGCUCAACACAGCGUGGCAAAGUGGCUGUGGCUAGACUGCCUCUCUGGGUUCCUCGUCACUCAGCAGGGCACCUCUGAGAGAAAUGCC [G40A G53U A107G U130C]: 0.94; for UACGUAGGUGGUUUUCCCCUGAUAGUGCUAAGGGGGCCUAGAAGUUUGGGCUGGGCAGAGCUCAACACAGCGUGGCAAAGUGGCUGUGGCUAGACUGCCUCUCUGGAUUCCUCGUCACUCAGCAGGGCAUCUCUGAGAGAAACGCC [G40A A50G U143C]: 1.09. UACGUAGGUGGUUUUCCCCUGAUAGUGCUAAGGGGGCCUAGAAGUUUGGACUGGGCAGAGCUCAACACAGCGUGGCAAGGUGGCUGUGGCUAGACUGCCUCUCUGGAUUCCUCGUCACUCAGCAGGGCAUCUCUGAGAGGAAUGCC [G40A A79G A140G]: the self-cleavage turned out to be 0.62.

For UACGUAGGUGGUUUUCCCCUGAUAGUGCUAAGGGGGCCGGGAAGUUUGGACUGGGCAGAGCUCAACACAGCGUGGCAAAGUGGCUGUGGCUAGACUGCCUCUCUGGAUUCCUCGUCACUCAGCAGGGCAUCUCUGAGGGAAGUGCC [U39G A138G A142G], the self-cleavage turned out to be 2.34. The result for UACGUAGGUGGUUUUCCCCUGAUAGUGCUAAGGGGGCCUAGAAGUUUGGACUGGGCAGAGCUCAACACAGCGUGGCAAAGUGGCUGAGGCUAGACUGCCUCUCUGGAUUCCUCGUCACUCAGCGGGGCAUCUCUGAGAGUAAUGCC [G40A U87A A124G A140U] reads 0.06; that for UACGUAGGUGGUUUUCCCCUGAUAGUGCUAAGGGGGCCUAGAAGUUUGGACUGGGCAGAGCUCAACACAGCGUGGCAAAGUGGCUGUGGCUAGACUGCCUCCCUGGAUUCCUCGUCACUCAGCAGGGCACCUCUGAGAGAAAUGCC [G40A U102C U130C], 1.4; that for UACGUAGGUGGUUUUCCCCUGAUAGUGCUAAGGGGGCCUAGAAGUUUGGACUGGGCAGAGCUCAACACAGCGUGGCAAAGUGGCUGUGGCUAGACUGCCUCUCUGGAUUCCUCGUCACUCAGCAGGGCACCUCUGAGAGAAGUGCC [G40A U130C A142G], 1.36. The result for UACGUAGGUGGUUUUCCCCUGAUAGUGCUAAGGGGGCCCGGAAGUUUGGACUGGGCAGAGCUCAACACAGCGUGGCAAAGUGGCUGUGGCUAGACUGCCUCUCUGGAUUCCUCGUCACUCAGCAGGGCACCUCUGAGAGAAAUGGC [U39C U130C C145G] reads 1.57; that for UACGUAGGUGGUUUUCCCCUGAUAGUGCUAAGGGGGCCGGGAAGUUUGGACUGGGCAGAGCUCAACACAGCGUGGCAAAGUGGCUGUGGCUAGACUGCCUCCCUGGAUUCCUCGACACUCAGCAGGGCAUCUCUGAGAGAAAUGCC [U39G U102C U115A], 2.42. The result for UACGUAGGUGGUUUUCCCCUGAUAGUGCUAAGGGGGCCGGGAAGUUUGGACUGGGCAGAGCUCAGCACAACGUGGCAAAGUGGCCGUGGCUAGACUGCCUCUCUGGAUUCCUCGUCACUCAGCAGGGCAUCUCUGAGAGAAAUGCC [U39G A65G G70A U85C] reads 0.06; that for UACGUAGGUGGUUUUCCCCUGAUAGUGCUAAGGGGGCCCGGAAGUUUGGACUGGGCAGAGCUCAACACAGCGUGGCAAAGUGGCUGUGGCUAGACUGCCUCUCAGGAUUCCUCGUCACUCAGCAGGGCAUCACUGAGAGAAAUGCC [U39C U104A U132A], 0.32; that for UACGUAGGUGGUUUUCCCCUGAUAGUGCUAAGGGGGCCUAGAAGUUUGGACUGGGCAGAGCUCAACACAGCGUGGCAAAGUGGCUGUGGCUAGACUGCCUCUCUGGAUUCCUCGUCACUCAGCAGGGCGUCUCUGAGAGAGAUGCC [G40A A129G A141G], 0.16.

Consider UACGUAGGUGGUUUUCCCCUGAUAGUGCUAAGGGGGCCUAGAAGUUUGGACUGGGCAGAGCUCAACACGGCGUGGCAAAGUGGCUGUGGCUAGACUGCCUCUCUGGAUUCCUCGUCACUUAGCAGGGCAUCUCUGAGAGAAAUGCC [G40A A69G C120U], for which the self-cleavage was found to be 0.6.

For UACGUAGGUGGUUUUCCCCUGAUAGUGCUAAGGGGGCCGGGAGGUUUGGACUGGGCAGAGCUCAACACAGCGUGGCAAGGUGGCUGUGGCUAGACUGCCUCUCUGGAUUCCUCGUCACUCAGCAGAGCAUCUCUGAGAGAAAUGCC [U39G A43G A79G G126A], the self-cleavage was 1.16.

As to UACGUAGGUGGUUUUCCCCUGAUAGUGCUAAGGGGGCCGGGAAGUCUGGACUGGGCAGAGCUCAACACAGCGUGGCAAAGAGGCUGUGGCUAGACUGCCUCUCUGGAUUCCUCGUCACUCAGCAGGGCAUCUCUGAGAGAAAUGCC [U39G U46C U81A], the self-cleavage turned out to be 2.39.

With UACGUAGGUGGUUUUCCCCUGAUAGUGCUAAGGGGGCCUAGAAGUUUGGACUGGGCAGAGCUCAACACAGCGUGGCUAAGCGGCUGUGGCUAGACUGCCUCUCUGGAUUCCUCGUCACUCAGCAGGGCAUCUCUGAGAGAAAUGCC [G40A A77U U81C], the self-cleavage was 0.94.
